The whole screen tested about 310,000 compounds, of which about 14,000 (4.5%) showed an effect of 50% or more. The effect is printed as a negative number. Some of the results follow.
Target: human ether-à-go-go-related gene (hERG) potassium channel (human, UniProt Q12809)
Assay: primary screen, population patch clamp on CHO cells stably expressing hERG
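Note: peak tail current of the secondary pulse compared with the same well before compound.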

Sequence of human ether-à-go-go-related gene (hERG) potassium channel (Q12809 whole entry, looked up): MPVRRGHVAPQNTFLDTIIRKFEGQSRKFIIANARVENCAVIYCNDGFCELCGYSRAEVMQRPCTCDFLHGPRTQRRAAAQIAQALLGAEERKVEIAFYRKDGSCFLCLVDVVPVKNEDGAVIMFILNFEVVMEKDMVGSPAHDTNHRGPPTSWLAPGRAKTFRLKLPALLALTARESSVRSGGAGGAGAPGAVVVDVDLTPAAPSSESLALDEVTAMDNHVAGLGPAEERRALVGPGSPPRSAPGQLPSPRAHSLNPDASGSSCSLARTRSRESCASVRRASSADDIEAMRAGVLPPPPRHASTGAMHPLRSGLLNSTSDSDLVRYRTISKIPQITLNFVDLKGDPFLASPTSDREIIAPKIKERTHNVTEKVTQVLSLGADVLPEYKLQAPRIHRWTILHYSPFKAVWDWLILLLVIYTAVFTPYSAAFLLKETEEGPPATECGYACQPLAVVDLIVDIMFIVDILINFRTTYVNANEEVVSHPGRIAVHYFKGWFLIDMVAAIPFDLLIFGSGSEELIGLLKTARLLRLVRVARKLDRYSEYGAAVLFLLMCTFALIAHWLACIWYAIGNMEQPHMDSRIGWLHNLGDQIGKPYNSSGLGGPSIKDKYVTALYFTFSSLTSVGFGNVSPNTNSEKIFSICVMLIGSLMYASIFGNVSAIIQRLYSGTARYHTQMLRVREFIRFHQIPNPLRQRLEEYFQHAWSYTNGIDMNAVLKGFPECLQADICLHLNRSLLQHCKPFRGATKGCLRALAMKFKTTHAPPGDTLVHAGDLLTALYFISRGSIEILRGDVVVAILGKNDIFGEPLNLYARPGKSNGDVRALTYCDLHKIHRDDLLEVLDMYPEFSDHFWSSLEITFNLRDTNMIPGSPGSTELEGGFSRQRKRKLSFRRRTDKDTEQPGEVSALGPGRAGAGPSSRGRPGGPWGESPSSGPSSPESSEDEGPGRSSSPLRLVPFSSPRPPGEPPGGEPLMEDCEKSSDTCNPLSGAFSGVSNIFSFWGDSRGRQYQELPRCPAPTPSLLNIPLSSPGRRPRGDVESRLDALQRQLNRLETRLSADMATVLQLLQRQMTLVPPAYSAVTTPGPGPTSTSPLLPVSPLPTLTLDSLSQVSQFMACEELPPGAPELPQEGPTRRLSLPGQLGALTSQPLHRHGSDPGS

Row | Structure (SMILES) | hERG current change (%, negative = inhibition) at 10uM [%]
1 | O=C(COC(=O)C1=COCCO1)Nc1ccc(F)cc1 | -2.97
2 | COc1ccc(C2Nc3ccccc3C(=O)N2O)cc1CN1CCOCC1 (centres unmarked) | -2.72
3 | CCC1CCCCN1CCCNC(=O)c1ccc(/C=C2/Sc3ccccc3NC2=O)cc1 (centres unmarked) | -76.9
4 | O=C(Nc1ccc(CN2CCCCC2)cc1)c1ccc(Br)o1 | -33
5 | Cc1cc(-c2ccccc2)nc(SCC(=O)c2cccc([N+](=O)[O-])c2)n1 | -0.365
6 | C=CCN1C(C(=O)c2ccccc2)=C(OC(=O)COc2ccccc2)c2ccccc2S1(=O)=O | 7.6
7 | O=C(Cn1cnc2c(nnn2Cc2ccccc2)c1=O)c1ccc(Cl)cc1 | 10
8 | CCN1C(=O)N[C@@H](c2cccc(C(F)(F)F)c2)[C@H](C(=O)OC)[C@H]1C | -2.23
9 | O=C(COc1ccc2ccc(=O)oc2c1)Nc1ccc(N2CCOCC2)cc1 | 3.85
10 | Cc1ccc(C(=O)COC(=O)c2cn(-c3ccccc3)nc2-c2ccccc2)cc1[N+](=O)[O-] | 2.97
11 | COc1cc(C=O)ccc1OS(=O)(=O)c1ccc(NC(C)=O)cc1 | -5.18
12 | O=C(Nc1ccnn1C1CCN(C(=O)c2ccc(Cl)cc2)CC1)C1CC1 | -24.2
13 | CCC(NS(=O)(=O)c1cccs1)c1ccc(C)cc1 (centres unmarked) | 2.52
14 | COc1ccccc1/C=C(\C#N)C(=O)Nc1ccc(S(N)(=O)=O)cc1 | 24.3
15 | COc1ccc(C(=O)COC(=O)CCN=C2NS(=O)(=O)c3ccccc32)cc1OC | -32.1
16 | CC(C)c1ccc(S(=O)(=O)/N=C2/C=C(Sc3ncn[nH]3)C(=O)c3ccccc32)cc1 | 27.8
17 | Cc1cccc(C(=O)NNC(=O)CN2C(=O)c3ccccc3C2=O)c1 | -6.94
18 | CC(C)c1nc(-c2ccccc2)c(-c2ccccc2)[nH]1 | -6.02
19 | N#Cc1nc(-c2ccc(F)cc2)oc1N1CCN(C(=O)c2ccco2)CC1 | -75.2

Row | Structure (SMILES) | hERG current change (%, negative = inhibition) at 10uM [%]
20 | O=C(COC(=O)c1cccs1)NC1CCCC1 | 17.7
21 | COc1ccc(/C=C/C(=O)O)cc1S(=O)(=O)N1CCCCC1 | 21
22 | COc1ccc(CNCC(=O)Nc2cc(C)nn2-c2nc(C)cc(C)n2)cc1OC | -56.8
23 | CCCN1CCC(=O)N([C@H](CSc2ccc(Br)cc2)Cc2ccccc2)CC1 | -71.2
24 | CC(=O)N1CCN(C(=S)Nc2ccc(Oc3ccccc3)cc2)CC1 | -22.6
25 | CCCc1cc(NCc2ccccn2)n2c(nc3ccccc32)c1C#N | -3.92
26 | NC(N)=N/N=C/c1ccc(Cl)cc1Cl | -22.8
27 | C=CCn1c(SC/C=C/c2ccccc2)nnc1-c1sc(N)nc1C | -12.4
28 | O=C(CN1C(=O)NC2(CCCCC2)C1=O)NCCC1=CCCCC1 | 6.02
29 | O=C(NCc1cccs1)c1cnc2ccccn2c1=O | -14.2
30 | CC1CC(C)CN(CCCNC(=O)CN2C(=O)CSc3ccc(S(=O)(=O)N4CCOCC4)cc32)C1 (centres unmarked) | 15.8
31 | Cc1nc(C(C)N(C)Cc2nc(-c3ccc4c(c3)OCO4)no2)c(C)s1 (centres unmarked) | 5.52
32 | Cc1cc(NC(=O)CCl)no1 | 16.6
33 | CCCCN1C(=O)C(=O)N(c2ccccc2)C1=S | 7.88
34 | Cc1ccc(NC(=O)c2cccc(Oc3ccc([N+](=O)[O-])cc3)c2)c(C(=O)O)c1 | 4.79
35 | COc1ccccc1/C=N/NC(=O)c1ccc2c(c1)OCO2 | 7.71
36 | Cc1c(O)ccc(/C=N/Nc2ncccc2[N+](=O)[O-])c1O | 15.5
37 | CC(=O)OCC1=C(C(=O)O)N2C(=O)C(NC(=O)CCn3nc(C(F)(F)F)c(Br)c3C3CC3)C2SC1 (centres unmarked) | 5.62
38 | O=C(COc1ccc(-n2cnnn2)cc1)N1CCN(c2ccc(F)cc2)CC1 | -71.5

Row | Structure (SMILES) | hERG current change (%, negative = inhibition) at 10uM [%]
39 | NC(=O)c1ccc(Cl)c2ccccc12 | 22.3
40 | COc1cc(NC(=O)c2ccc3nsnc3c2)cc(OC)c1OC | 2.2
41 | O=C(O/N=C1\CCS(=O)(=O)c2sccc21)c1c(F)cccc1F | 5.26
42 | Cc1onc(-c2ccccc2)c1C(=O)N(Cc1ccccc1)C(C)C | -23.4
43 | O=C(NC(=S)NCc1ccccc1)c1cccnc1 | 2.67
44 | COc1ccccc1NC(=O)Cn1cc(C(=O)C2CC2)c2ccccc21 | -4.32
45 | CCc1ccc(NC(=O)CCC(=O)N2CCSc3ccccc32)cc1 | -1.57
46 | COc1ccc(Cl)cc1/C=C/c1ccc2cccc(O)c2n1 | 15.7
47 | CC(=O)Nc1ccc(S(=O)(=O)N(Cc2cccnc2)Cc2cc3ccc(C)cc3[nH]c2=O)cc1 | 18.6
48 | COc1ccccc1NS(=O)(=O)NC(=O)c1c(C)[nH]c2ccccc12 | 17.6
49 | Cc1ccccc1NC(=O)C(=O)NCCCN1CCCC1=O | 17.7
50 | O=S(=O)(NCc1cccnc1)c1ccc(Cl)c2ccccc12 | -2.87
51 | N#Cc1cc(S(=O)(=O)c2ccc(F)cc2)c(N)[nH]c1=O | 1.93
52 | COC1CCN(C(=O)c2ccc3oc(C(C)C)nc3c2)CC1 | 10.9
53 | Cc1ccc(-c2cc(-c3ccccc3)cc(-c3ccccc3)[n+]2-c2ccccc2)cc1.[O-][Cl+3]([O-])([O-])[O-] | -82.1
54 | COc1ccc(Cc2nnc(Nc3ccc(C)cc3)o2)cc1OC | 9.6
55 | CC(=O)N1CCc2cc(S(=O)(=O)NCCC(=O)N3CCN(Cc4ccccc4)CC3)ccc21 | -17.3
56 | CN(C(=O)COC(=O)CNC(=O)C12CC3CC(CC(C3)C1)C2)c1ccccc1 | -0.178
